# Experimental data reported in the supplement of paper PMC3334620.
# Whole data set: some 33,000 sequences, median “E-score (-0.5 to 0.5)” near -0.054, cut for the highest 2% near 0.35. The list shows a part of the results.
# Biological target: T1, Stb5 (UniProt P38699)
# T1 sequence: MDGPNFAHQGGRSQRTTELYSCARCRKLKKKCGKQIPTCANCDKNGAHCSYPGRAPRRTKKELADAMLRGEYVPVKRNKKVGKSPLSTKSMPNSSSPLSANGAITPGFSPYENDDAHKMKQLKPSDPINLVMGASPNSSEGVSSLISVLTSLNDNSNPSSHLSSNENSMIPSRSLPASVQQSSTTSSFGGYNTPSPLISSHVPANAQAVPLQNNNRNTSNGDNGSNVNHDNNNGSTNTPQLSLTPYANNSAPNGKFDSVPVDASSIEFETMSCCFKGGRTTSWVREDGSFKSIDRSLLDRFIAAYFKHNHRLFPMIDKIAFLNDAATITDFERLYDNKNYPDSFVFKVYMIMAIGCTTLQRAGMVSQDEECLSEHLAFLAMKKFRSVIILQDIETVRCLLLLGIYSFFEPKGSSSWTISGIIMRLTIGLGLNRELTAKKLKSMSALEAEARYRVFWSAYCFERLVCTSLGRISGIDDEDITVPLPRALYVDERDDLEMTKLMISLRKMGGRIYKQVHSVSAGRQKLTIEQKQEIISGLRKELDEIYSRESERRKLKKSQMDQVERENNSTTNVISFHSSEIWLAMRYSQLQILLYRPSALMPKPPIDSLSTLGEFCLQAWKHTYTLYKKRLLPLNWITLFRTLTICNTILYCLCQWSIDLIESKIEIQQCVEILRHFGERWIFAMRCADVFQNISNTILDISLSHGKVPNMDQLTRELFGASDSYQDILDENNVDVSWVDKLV
# Test: PBM E-score (8-mer binding enrichment) (E-score (-0.5 to 0.5)); higher = stronger / more preferred TF binding; most listed sequences are background and not binding sites
# Settings: protein concentration: 200 nM; construct: GST-full length
# Experimental: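 Universal 'all 10-mer' protein binding microarrays (Agilent AMADID 015681) probed with GST-tagged S. cerevisiae TFs (full-length or DBD) made by in vitro transcription/translation (PURExpress), about 100-200 nM. Bound TF was detected with fluorescent anti-GST. Each ungapped 8-mer (which stands for itself and its reverse complement) is scored by the PBM enrichment score (E-score), a modified Wilcoxon-Mann-Whitney statistic from -0.5 to +0.5, computed with the Universal PBM Analysis Suite. Scale: above 0.35 generally sequence-specific binding.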
row,Sequence,PBM E-score
1,ATCGCGGG,0.206
2,AGTTAAGG,0.0217
3,ATTTTATG,0.195
4,CTACGTGC,-0.122
5,CCAGTACG,-0.0992
6,AGACATAA,-0.0193
7,GCAGAAGA,-0.0766
8,GTCTTTAA,-0.0538
9,CCGTATAG,0.0283
10,TTCAAGAA,0.0588
11,CCGAATGC,0.178
12,TCCTAGCA,-0.00686
13,GGTTGTAA,0.0915
14,CGGGCCGA,0.327
15,GCGGGGAA,0.3
16,CCTTCCCG,-0.125
17,GAAGGCCC,0.226
18,CTGCCAAG,-0.158
19,AGAAAAAG,-0.0433
20,AGTCAGGA,-0.0969
21,TCGAGAAA,-0.0657
22,AGGGAAGC,-0.246
23,AGACTGAT,-0.0994
24,GGTCGGTA,0.319
25,CGGGGGCC,0.165

row,Sequence,PBM E-score
1,CACTCTGC,-0.142
2,GTCCGTGA,0.146
3,CGTCAAGC,0.0231
4,CAAGAAGG,-0.193
5,AATGTTCA,-0.142
6,GTGGACCA,-0.223
7,GATTGCCC,0.00611
8,CGTTTGTC,0.117
9,ACTGCTTC,0.0548
10,CTAACCAC,-0.0805
11,AGGACTAG,-0.228
12,GATGCACC,0.0425
13,AGTCCATC,-0.0854
14,TATCGGAA,0.221
15,CTAGCGAC,-0.216
16,AATCCCAG,-0.179
17,GTGCCCTA,-0.101
18,GTCGCTTA,-0.00449
19,CGTCGCGA,0.0788
20,AACATGAC,-0.175
21,ACCTGGCT,-0.221
22,TCGGCTCA,0.0985
23,GCCATGGA,-0.137
24,GAGTACGA,0.00642
25,GCAGTATA,0.0856

row,Sequence,PBM E-score
1,CACTCACA,-0.062
2,AGGTCCAT,-0.0608
3,TCGCTAAA,0.0383
4,ACTGTTCA,-0.149
5,CGATATCA,0.00984
6,GCCGGTGA,0.316
7,AATCGCCG,0.407
8,CACCGTCC,0.407
9,ATTATATA,0.0402
10,AGGCCGCA,0.231
11,CCGACACA,0.27
12,AATTTCGT,-0.0517
13,AGATAAAA,0.0479
14,GACACATA,0.0096
15,AGGAACTC,-0.162
16,AGTAACGA,0.0155
17,AACGCAGC,0.00183
18,AAGGTAGT,-0.0681
19,CGCTTGAG,-0.0132
20,AAGCGACA,0.0208
21,ACTCATCC,-0.232
22,AAACAGCC,0.0135
23,ATGATTGG,-0.0212
24,GCTACGAA,-0.0407
25,ATCAGGCA,-0.181

row,Sequence,PBM E-score
1,ACCTCTCT,-0.0963
2,AGCCTGAC,-0.142
3,GCATGTAA,-0.0745
4,CACATTAA,-0.149
5,TAGATCAA,-0.267
6,CAATCTGG,-0.148
7,AAAGTGAT,-0.13
8,GACCCACC,0.00543
9,AACGCTCC,-0.068
10,GATACCCA,-0.19
11,ACTAAAGC,0.24
12,AAAGCGTA,-0.0834
13,GCACGATA,-0.00583
14,AGAAAACG,0.102
15,GGACTCCA,0.086
16,CCCCATGA,-0.159
17,CCATCAAG,-0.259
18,ACCATCCA,-0.118
19,CACGTATA,0.0139
20,ATTAAGCG,0.0447
21,CCTGGGCA,-0.341
22,ACGTCTAT,-0.122
23,CGTCCGGA,0.153
24,GGCAAACC,-0.00112
25,AGCGTTCA,-0.161

row,Sequence,PBM E-score
1,GCGGTGAA,0.345
2,AGCTATGA,-0.168
3,AAATCTGA,-0.048
4,CATCGGAC,0.34
5,TAACCTCA,-0.211
6,CATACCTC,0.0672
7,GCGTTGTA,-0.211
8,CCATGAAA,-0.0823
9,CTAGCCAC,-0.224
10,ACGGATCT,0.288
11,GTGGGCGA,-0.243
12,GTATTCGA,-0.145
13,CCGGAGAC,0.22
14,ACAGACCA,-0.239
15,ATAGAACC,0.268
16,ACTAGTAT,-0.0145
17,CAGAGGAC,-0.186
18,ACAAGGGT,-0.169
19,GGAACTCA,-0.106
20,AGTAGCAC,-0.093
21,TCATGGAA,-0.226
22,ACATGGGT,-0.243
23,TCATAGGA,-0.132
24,CTGACCGC,0.194
25,AAGGATAG,-0.00388

row,Sequence,PBM E-score
1,TAAAGAAA,0.039
2,AGCTACGC,-0.00599
3,ACGAACGC,-0.125
4,ACGTTAGG,0.0231
5,ATCACCAG,-0.0626
6,GGTAGTCA,-0.0371
7,ACTGAAAA,-0.182
8,CGCGGATA,0.328
9,ACGCCTCG,0.0283
10,CTTAGCTA,-0.204
11,CTTCTCTC,-0.115
12,GAATTCAC,-0.0754
13,GTATCCAA,-0.035
14,AAATTAGA,-0.0596
15,CTCGTTGA,-0.0756
16,TCCAATCA,0.0392
17,CACCGGAA,0.293
18,CCATGTGA,-0.247
19,ATTGACAG,0.0007
20,GAAAGTCC,0.282
21,ACCTTTGA,-0.207
22,GCAATCGA,-0.236
23,CGGGTAAC,0.00435
24,ACCAGCGA,0.0766
25,ATTACGCG,0.0522

row,Sequence,PBM E-score
1,ACGTCATG,0.00304
2,ATCCTCAA,-0.189
3,CAGCCGCA,-0.0866
4,CTGCACAG,-0.114
5,CGGACTAA,0.428
6,AGTTTTGC,0.119
7,TAGCTAAA,-0.0593
8,GGGAAGAC,0.0471
9,AGGGATGG,-0.135
10,CACACCAG,-0.335
11,AATCCCCA,-0.0992
12,ACGACGCA,0.0723
13,CTTCGGGC,0.038
14,GGTACTAC,0.303
15,GCGAAGCA,0.109
16,CGCAGTTC,0.00085
17,AGTAGCCC,0.125
18,AGTGGCAT,-0.234
19,CCACTAAG,-0.0427
20,TATTGGGA,-0.198
21,GGAGGACC,0.00687
22,AGATTTTA,0.0159
